This is an account of results in the RNAGym collection of RNA variant scans (doi:10.1093/nar/gkz1192).

B1: CPEB3 Ribozyme (parent)
chain: UAACAGGGGGCCACAGCAGAAGCGUUCACGUCGCAGCCCCUGUCAGAUUCUGGUGAAUCUGCGAAUUCUGCUGUAUAUCUC

The source gives no read counts; variants with many changes may rest on few reads.

This series covers variants of B1. As to the kind of experiment: self-cleavage, relative activity (ratio to wild type); higher = more cleavage; in vitro, sequencing. In a few lines: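 Relative activity compares each variant's cleaved/total read fraction with that of the unmutated ribozyme. To get these fractions, barcoded CPEB3 ribozyme libraries from rounds of error-prone PCR were transcribed with T7 RNA polymerase for 5 hours at 37°C and then given 15 min of DNase I treatment before EDTA was added. The RNAs were reverse transcribed with template switching and sequenced on Illumina, and DNA sequencing linked barcodes to variants. A minimum of 5 reads applied, and three batches were averaged.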
For the variant U25A U26C U41C A56G A65G, the self-cleavage stood at 0.17.

U25C A47G U54C: the self-cleavage was determined as 0.15.

Regarding U25A U31A U69C, the self-cleavage amounted to 0.14.

Regarding U25A U41A U43C U78A, the self-cleavage was 0.19.

As for U25A C29A A65U, the self-cleavage came out at 0.15.

Turning to U25A U31C U66C, the self-cleavage turned out to be 0.12.

As to U25A C27U A65U, the self-cleavage turned out to be 0.1.

Consider U25C C27A G33A U41A U74A, for which the self-cleavage amounted to 0.13.

Take U25A G61U A77G: the self-cleavage is 0.14.

As for U25C C37U A45G G53U U69A, the self-cleavage is 0.07.

For U25A U26C U49C U66C, the self-cleavage was determined as 0.

Take U25A A35G U66C U76A: the self-cleavage was 0.31.

Take U25A A45U A56U A65G: the self-cleavage came out at 0.11.

As for U25A C62U U69C, the self-cleavage worked out at 0.15.

On to U25C A35U A47G G61A U80C, for which the self-cleavage amounted to 0.13.

Consider U25C A47G U72C, for which the self-cleavage stood at 0.24.

In the case of U25C A56U U60C A64U, the self-cleavage was determined as 0.11.

In the case of U25A U26C G36A A64G U72A, the self-cleavage worked out at 0.13.

For the variant U25A U43C A57G U72C, the self-cleavage stood at 0.28.

As for U25A U58C U66C U74A, the self-cleavage came to 0.06.

U25A A28G U72A: the self-cleavage was found to be 0.08.

For U25A U60C U69A, the self-cleavage came out at 0.13.

Regarding U25A A45U U69C, the self-cleavage amounted to 0.13.

For the variant U25A A56G U72G, the self-cleavage turned out to be 0.23.

Consider U25A U31C U41A A56G U72C, for which the self-cleavage was determined as 0.07.

Turning to U25C A28U U43A G52A U69C U76C, the self-cleavage was 0.14.

With U25C C38U A57G U69C U72C, the self-cleavage amounted to 0.14.

Regarding U25A A35U U48A U72C U76A, the self-cleavage is 0.05.

Regarding U25A U74A A77U, the self-cleavage came out at 0.25.

Turning to U25C A28G U43A U58C U66A, the self-cleavage came out at 0.08.

As to U25C A45G G63A U72A U78C U80C, the self-cleavage stood at 0.07.

As to U25C C29A A35C C39A U43C G61C G70C, the self-cleavage worked out at 0.05.

On to U25A U43C U49C A57U U58G U60C, for which the self-cleavage turned out to be 0.02.

Turning to U25C A35G A47U, the self-cleavage was found to be 0.18.

For the variant U25C A35G A47G, the self-cleavage worked out at 0.13.

Turning to U25C A57G U69C A77U, the self-cleavage came to 0.03.

As to U25C A45C A47G U67C, the self-cleavage turned out to be 0.23.

U25C C39A C50U U60C: the self-cleavage was determined as 0.12.

With U25A A28U U31C A35U A56G U78C, the self-cleavage came to 0.04.

For U25C A35G U54A A56U A77U, the self-cleavage was found to be 0.12.

With U25C A57C U72C, the self-cleavage amounted to 0.16.

On to U25C A35G C39A, for which the self-cleavage stood at 0.37.

As for U25A C37U C39G U74G U80A, the self-cleavage was found to be 0.2.

In the case of U25C A57G U60C A64U, the self-cleavage was 0.17.

With U25C A45G U48A, the self-cleavage was found to be 0.37.

Take U25C A28G U69A: the self-cleavage stood at 0.26.

For U25C C32A U41A, the self-cleavage is 0.48.

Take U25C A28U U60A U72A: the self-cleavage amounted to 0.16.

Regarding U25C C34G G61A U78A, the self-cleavage turned out to be 0.

With U25C C38A G63A U66C, the self-cleavage turned out to be 0.1.

As for U25C A35G A57C C68U U69C, the self-cleavage was 0.08.

As for U25C A56G U66A, the self-cleavage is 0.44.

For the variant U25C A56G U66C, the self-cleavage came out at 0.45.

As to U25C A65U U69C U78C, the self-cleavage stood at 0.14.

As for U25C A35G U41A U72C, the self-cleavage was determined as 0.1.

U25C C32A U41A A47C U74C: the self-cleavage was found to be 0.08.

For the variant U25C C29G U74A A77G, the self-cleavage was 0.31.

Consider U25C A47G U51C A64G, for which the self-cleavage was 0.18.

Turning to U25C A35U U43C C68A U78C, the self-cleavage was determined as 0.06.

On to U25C A56U A65G, for which the self-cleavage was found to be 0.24.

As for U25A C38U U76C, the self-cleavage was 0.12.

Regarding U25C A28G A65G, the self-cleavage is 0.25.

In the case of U25A A64U U66C, the self-cleavage was 0.15.

U25A U26C U66C: the self-cleavage worked out at 0.09.

On to G24U U60G A64U A77G, for which the self-cleavage came out at 0.06.

For U25A A64G U67C, the self-cleavage was determined as 0.34.

In the case of U25C A47G U51A U78A, the self-cleavage came out at 0.16.

Consider U25C A47C U54A U66C, for which the self-cleavage stood at 0.7.

With U25C C38A U49C U69G C71A, the self-cleavage worked out at 0.11.

U25A U66C U76C: the self-cleavage was determined as 0.25.

Take U25A U41A U51C U72C: the self-cleavage came to 0.2.

With U25C A45U U51C U58C, the self-cleavage is 0.14.

On to U25C A45U A64U U66C U67A U72A A75G, for which the self-cleavage was determined as 0.03.

With U25A U48C A56G U67C, the self-cleavage amounted to 0.1.

U25C A35G U41A U49A U60C U66C: the self-cleavage came to 0.34.

With U25A A35U U67C U74A U78C, the self-cleavage came to 0.09.

For the variant U25A A57G A64G U69C U72G, the self-cleavage was determined as 0.07.

U25C A28G U69C U78C: the self-cleavage was 0.19.

U25C A28U C71U: the self-cleavage worked out at 0.09.

On to U25A U41C U74C, for which the self-cleavage came to 0.12.

As for U25C A56U U60A U66G U78G, the self-cleavage stood at 0.06.

Turning to U25C C27G U49C A65C, the self-cleavage came to 0.15.

For G24U U31C U78C, the self-cleavage came out at 0.07.
